The supplement of paper PMC6531468
The other results are listed elsewhere or left out. These are enrichments in a pooled selection; single values are uncertain. Each score is taken over the longer molecules that contain the sequence shown.

The sequences below were run on IMP3 KH3-4 (assay: 6-mer SELEX enrichment z-score vs GST control; IMP3 is the RNA-binding protein IGF2BP3; higher = more enriched by binding). Settings: construct: KH3-4 (377-579); SELEX round: R4.
IMP3 KH3-4, sequence (chain, as listed by the source): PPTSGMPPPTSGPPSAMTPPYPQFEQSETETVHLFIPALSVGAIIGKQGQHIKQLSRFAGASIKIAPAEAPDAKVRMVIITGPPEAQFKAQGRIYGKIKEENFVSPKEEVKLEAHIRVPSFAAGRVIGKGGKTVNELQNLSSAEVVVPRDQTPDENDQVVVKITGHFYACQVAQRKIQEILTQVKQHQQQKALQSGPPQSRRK
Method: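 SELEX-seq with GST-tagged IMP3 KH3-4 (Pro377-Lys579) and an N40 RNA pool, round 4. 6-mer z-score of sequence-tag enrichment normalised to the corresponding GST SELEX round; RNA k-mers written as DNA (T for U).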
With AAGTCC the “6-mer SELEX enrichment z-score” value was -0.474.
For TGGCGT, the “6-mer SELEX enrichment z-score” value was -0.427.
For CTGTAG, the “6-mer SELEX enrichment z-score” value was -0.219.
In the case of AACTCC, the “6-mer SELEX enrichment z-score” value is reported as -1.23.
ATACTC was tested, and the “6-mer SELEX enrichment z-score” value was -0.589.
With TGTGAA the “6-mer SELEX enrichment z-score” value was 0.576.
For TTGTTT, the “6-mer SELEX enrichment z-score” value was 0.554.
For GCTATT, the “6-mer SELEX enrichment z-score” value was 0.498.
With TTCAAT the “6-mer SELEX enrichment z-score” value was 1.11.
In the case of GATTGA, the “6-mer SELEX enrichment z-score” value is reported as 0.579.
For TTAAAT, the “6-mer SELEX enrichment z-score” value was 1.94.
In the case of GTGGAG, the “6-mer SELEX enrichment z-score” value is reported as 0.156.
In the case of GAACGC, the “6-mer SELEX enrichment z-score” value is reported as -1.18.
CAAAAA was tested, and the “6-mer SELEX enrichment z-score” value was -1.51.
In the case of CGGTGG, the “6-mer SELEX enrichment z-score” value is reported as 0.237.
In the case of AGGTGG, the “6-mer SELEX enrichment z-score” value is reported as 0.745.
In the case of AGTATC, the “6-mer SELEX enrichment z-score” value is reported as -0.43.
For AAGGGT, the “6-mer SELEX enrichment z-score” value was 0.175.
For TAACGT, the “6-mer SELEX enrichment z-score” value was -0.147.
In the case of TGGTCG, the “6-mer SELEX enrichment z-score” value is reported as 0.286.
In the case of CGGCGA, the “6-mer SELEX enrichment z-score” value is reported as 0.478.
For GGAGCG, the “6-mer SELEX enrichment z-score” value was -1.79.
In the case of AGCTTC, the “6-mer SELEX enrichment z-score” value is reported as -0.224.
With GTCCCT the “6-mer SELEX enrichment z-score” value was -0.53.
TCAATT was tested, and the “6-mer SELEX enrichment z-score” value was 1.24.
In the case of GCGTCG, the “6-mer SELEX enrichment z-score” value is reported as -0.128.
In the case of TAATTC, the “6-mer SELEX enrichment z-score” value is reported as 1.15.
With AGTTTC the “6-mer SELEX enrichment z-score” value was -0.18.
With CGAATC the “6-mer SELEX enrichment z-score” value was -1.05.
In the case of CACTAA, the “6-mer SELEX enrichment z-score” value is reported as 1.24.
For TTGCGC, the “6-mer SELEX enrichment z-score” value was -0.359.
For GCGTAT, the “6-mer SELEX enrichment z-score” value was -1.45.
For CTATGT, the “6-mer SELEX enrichment z-score” value was 0.305.
With GCGAGT the “6-mer SELEX enrichment z-score” value was -0.833.
ATACAG was tested, and the “6-mer SELEX enrichment z-score” value was 1.79.
For CCGCCT, the “6-mer SELEX enrichment z-score” value was -0.683.
With GTTAGA the “6-mer SELEX enrichment z-score” value was 0.088.
In the case of AAGTTC, the “6-mer SELEX enrichment z-score” value is reported as -0.017.
With AGCGCA the “6-mer SELEX enrichment z-score” value was -1.34.
AGAGGT was tested, and the “6-mer SELEX enrichment z-score” value was 0.448.
